Consider 54 compounds from paper PMC4336329 (PLoS ONE, 2015).

The structures appear in SMILES notation. In all, about 310,000 compounds went through this assay and about 2,200 (0.71%) showed an effect of 50% or more. The effect is printed as a negative number. The list shows a part of the results.

The target in this assay is human ether-à-go-go-related gene (hERG) potassium channel (human, UniProt Q12809). The experiment in a line: primary screen, population patch clamp on CHO cells stably expressing hERG.
human ether-à-go-go-related gene (hERG) potassium channel, sequence (Q12809 whole entry, looked up): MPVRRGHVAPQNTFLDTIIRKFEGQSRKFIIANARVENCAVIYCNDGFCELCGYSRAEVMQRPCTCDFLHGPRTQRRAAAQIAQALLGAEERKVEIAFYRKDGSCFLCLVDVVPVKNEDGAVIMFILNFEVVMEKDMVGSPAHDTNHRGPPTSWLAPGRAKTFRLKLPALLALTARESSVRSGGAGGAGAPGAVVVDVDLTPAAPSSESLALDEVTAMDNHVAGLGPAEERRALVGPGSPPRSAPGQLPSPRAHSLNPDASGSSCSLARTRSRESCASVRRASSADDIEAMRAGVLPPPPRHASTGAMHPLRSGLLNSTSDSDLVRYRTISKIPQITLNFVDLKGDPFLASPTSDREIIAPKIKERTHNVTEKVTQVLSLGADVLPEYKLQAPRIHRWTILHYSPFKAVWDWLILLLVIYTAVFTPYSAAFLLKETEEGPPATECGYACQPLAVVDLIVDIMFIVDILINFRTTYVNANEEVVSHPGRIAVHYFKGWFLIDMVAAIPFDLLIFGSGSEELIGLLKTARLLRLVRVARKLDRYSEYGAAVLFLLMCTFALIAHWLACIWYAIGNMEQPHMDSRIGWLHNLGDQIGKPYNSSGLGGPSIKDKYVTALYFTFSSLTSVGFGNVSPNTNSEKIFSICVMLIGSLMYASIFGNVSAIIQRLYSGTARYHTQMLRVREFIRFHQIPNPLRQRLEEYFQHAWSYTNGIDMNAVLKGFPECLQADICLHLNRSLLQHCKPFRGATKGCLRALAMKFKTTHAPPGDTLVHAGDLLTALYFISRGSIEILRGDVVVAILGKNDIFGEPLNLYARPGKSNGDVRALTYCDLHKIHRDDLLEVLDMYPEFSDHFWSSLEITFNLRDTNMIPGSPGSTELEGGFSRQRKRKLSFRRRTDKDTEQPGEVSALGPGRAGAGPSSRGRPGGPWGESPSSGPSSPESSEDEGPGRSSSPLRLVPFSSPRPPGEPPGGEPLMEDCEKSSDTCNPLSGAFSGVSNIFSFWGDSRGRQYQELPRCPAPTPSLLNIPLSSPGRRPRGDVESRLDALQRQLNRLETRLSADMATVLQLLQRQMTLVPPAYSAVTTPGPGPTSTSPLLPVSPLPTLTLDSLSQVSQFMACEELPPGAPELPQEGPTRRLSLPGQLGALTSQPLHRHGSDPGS
Consider `O=C(c1[nH]ncc1-c1ccccc1)C1CO1` (stereo not drawn), for which the “hERG current change (%, negative = inhibition) at 1uM” value came out at 14.4%.

As for `Cc1ccc(S(=O)(=O)Nc2ccc(NC(=O)c3cccnc3)cc2)cc1`, the “hERG current change (%, negative = inhibition) at 1uM” value amounted to 2.65%.

Take `O=C(CCc1ccccc1)N/N=C/c1cc(Br)ccc1O`: the “hERG current change (%, negative = inhibition) at 1uM” value was 15.6%.

Regarding `NC1=NC[C@H](Cc2ccc(O)cc2)N1CCc1cccc2ccccc12`, the “hERG current change (%, negative = inhibition) at 1uM” value is 10.7%.

On to `CCOC(CNC(=O)c1ccc2nc(N3CCC(C)CC3)sc2c1)OCC`, for which the “hERG current change (%, negative = inhibition) at 1uM” value came to 14.5%.

In the case of `CCCn1nc(NC(=O)c2cccs2)c2cc3cc(OC)ccc3nc21`, the “hERG current change (%, negative = inhibition) at 1uM” value is 4.24%.

With `O=C(O)CCC(=O)N1CCc2cc(S(=O)(=O)N(CCc3ccccc3)Cc3ccccc3)ccc21`, the “hERG current change (%, negative = inhibition) at 1uM” value is 49.1%.

With `Br.COc1ccc(OC)c(N2Cc3ccccc3C2=N)c1`, the “hERG current change (%, negative = inhibition) at 1uM” value was -14.8%.

For `Cc1ccc(NC(=O)C(=O)C2C(=O)Nc3ccccc32)cc1` (stereo not drawn), the “hERG current change (%, negative = inhibition) at 1uM” value amounted to 9.88%.

For `Cc1cc(C)c(NC(=O)CN(C)C(=O)C2CC(=O)N(c3cccc4ccccc34)C2)c(C)c1` (stereo not drawn), the “hERG current change (%, negative = inhibition) at 1uM” value is 0.415%.

In the case of `CN1CCN(c2nc3c(c(=O)[nH]c(=O)n3C)n2CCCSc2nnnn2-c2ccccc2)CC1`, the “hERG current change (%, negative = inhibition) at 1uM” value is -11.9%.

In the case of `COc1ccc(CN2CCCCC2c2cccnc2)c(OC)c1C` (stereo not drawn), the “hERG current change (%, negative = inhibition) at 1uM” value was determined as 15.7%.

With `O=C(OCc1nc2scc(-c3ccccc3)c2c(=O)[nH]1)c1cc([N+](=O)[O-])ccc1Cl`, the “hERG current change (%, negative = inhibition) at 1uM” value came to 6.51%.

`O=C(c1ccc(COc2ccccc2Br)o1)N1N=C(C(F)F)CC1(O)C(F)F` (stereo not drawn): the “hERG current change (%, negative = inhibition) at 1uM” value came out at 13.3%.

As for `O=C(OCC(=O)N1CCCc2ccccc21)c1cccc(S(=O)(=O)N2CCc3ccccc32)c1`, the “hERG current change (%, negative = inhibition) at 1uM” value is recorded as -3.58%.

`C[C@H](NC(=O)c1ccccc1Cl)C(=O)OCC(=O)NNC(=O)c1cccs1`: the “hERG current change (%, negative = inhibition) at 1uM” value worked out at 9.26%.

Consider `Cc1ccc(NC(=O)CCn2cccc2)cc1C`, for which the “hERG current change (%, negative = inhibition) at 1uM” value was 20.7%.

As to `Cc1ccccc1OCC(=O)N(Cc1nc(-c2ccccc2)no1)C(C)C`, the “hERG current change (%, negative = inhibition) at 1uM” value was -2.83%.

In the case of `NS(=O)(=O)c1ccc(NC(=S)Nc2cc(Cl)c(Cl)cc2Cl)cc1`, the “hERG current change (%, negative = inhibition) at 1uM” value was determined as 14.7%.

`COc1ccc(CCn2c(=N)c(C(=O)NCc3ccco3)cc3c(=O)n4cccc(C)c4nc32)cc1`: the “hERG current change (%, negative = inhibition) at 1uM” value is -76.6%.

Consider `COc1ccc(C(C)=O)cc1CC(C(=O)c1ccc(C)c(C)c1)N(C)C` (stereo not drawn), for which the “hERG current change (%, negative = inhibition) at 1uM” value is given as 5.03%.

With `Nc1nc(SCC(=O)Nc2ccc(OC(F)(F)F)cc2)[nH]c(=O)c1NC(=O)c1ccc(Br)o1`, the “hERG current change (%, negative = inhibition) at 1uM” value amounted to 17.1%.

Regarding `N#CC1=C(C2CC2)CC(c2ccccc2)C(C#N)=C1N` (stereo not drawn), the “hERG current change (%, negative = inhibition) at 1uM” value is listed as 4.98%.

As to `COc1ccc(NC(=O)C2CCC(N3C(=O)C4C5C=CC(C5)C4C3=O)CC2)cc1` (stereo not drawn), the “hERG current change (%, negative = inhibition) at 1uM” value was -2.03%.

Turning to `Cc1[nH]nc2ncc(C(=O)c3ccccc3O)cc12`, the “hERG current change (%, negative = inhibition) at 1uM” value came out at 9.74%.

Consider `CCCC(=O)Nc1ccc(C(=O)n2ccc(C)n2)cc1`, for which the “hERG current change (%, negative = inhibition) at 1uM” value amounted to 5.13%.

Consider `O=C(COc1ccc([N+](=O)[O-])cc1)Nc1ccc2c(c1)OCO2`, for which the “hERG current change (%, negative = inhibition) at 1uM” value is given as 1.09%.

`O=C(NCc1ccccc1)c1cccc(NC(=O)c2ccco2)c1`: the “hERG current change (%, negative = inhibition) at 1uM” value was found to be 9.71%.

On to `CN1CC(=O)N(CCOc2ccccc2)C1=O`, for which the “hERG current change (%, negative = inhibition) at 1uM” value was determined as 19.9%.

On to `CC1(C)Cc2c(C#N)c(NC3CCCCC3)nc(-c3ccco3)c2CO1`, for which the “hERG current change (%, negative = inhibition) at 1uM” value was found to be 14.6%.

For the compound `Cc1ccc(C(=O)NCCOc2cccc3cccnc23)cc1Cl`, the “hERG current change (%, negative = inhibition) at 1uM” value is listed as 1.83%.

Consider `CC(C)COC(=O)N1CCCC1C(=O)Nc1nccs1` (stereo not drawn), for which the “hERG current change (%, negative = inhibition) at 1uM” value worked out at 13.3%.

Regarding `COc1ccc(C(=O)Nc2ccc(N3CCCCC3)cc2)cc1Br`, the “hERG current change (%, negative = inhibition) at 1uM” value is -2.66%.

As to `COc1cccc(NC(=O)C(C)NS(=O)(=O)c2ccc(Br)cc2)c1` (stereo not drawn), the “hERG current change (%, negative = inhibition) at 1uM” value was -4.64%.

`COCc1ccc(CN2CCC(C(=O)Nc3cccc(-c4cscn4)c3)CC2)o1`: the “hERG current change (%, negative = inhibition) at 1uM” value is 8.14%.

For the compound `O=C1Nc2ccccc2C1=Nc1cccc(Cl)c1`, the “hERG current change (%, negative = inhibition) at 1uM” value came out at 22.3%.

For `Cc1noc(C)c1S(=O)(=O)N1CCCC(C(=O)Nc2ccc(Cl)cn2)C1` (stereo not drawn), the “hERG current change (%, negative = inhibition) at 1uM” value is reported as 1.92%.

For the compound `O=C(CN1CCCCC1)Nc1ccc(C(F)(F)F)cc1Cl`, the “hERG current change (%, negative = inhibition) at 1uM” value stood at 11.8%.

`CC12CN3CC(C)(CN(C1)C3c1cccs1)C2` (stereo not drawn): the “hERG current change (%, negative = inhibition) at 1uM” value is reported as 8.57%.

As for `CC(Oc1cc(F)ccc1[N+](=O)[O-])C(=O)Nc1ccc(S(=O)(=O)N2CCCC2)cc1` (stereo not drawn), the “hERG current change (%, negative = inhibition) at 1uM” value worked out at 13.3%.

Consider `O=C(C1=C[C@@H](c2ccccc2)C[C@@H](OCc2ccc(CO)cc2)O1)N1CCCCCCC1`, for which the “hERG current change (%, negative = inhibition) at 1uM” value is -2.3%.

In the case of `Cc1c(Cl)c([N+](=O)[O-])nn1CCCC(=O)NCCc1ccccc1`, the “hERG current change (%, negative = inhibition) at 1uM” value came out at 5.41%.

Turning to `C=C[C@@]1(C)CC(=O)[C@]2(O)[C@@]3(C)[C@@H](O)CCC(C)(C)[C@@H]3[C@H](OC(C)=O)[C@H](O)[C@@]2(C)O1`, the “hERG current change (%, negative = inhibition) at 1uM” value was found to be 12.6%.

`CCCn1c(N)c(Br)c(=O)[nH]c1=O`: the “hERG current change (%, negative = inhibition) at 1uM” value is recorded as 14.9%.

On to `S=C(c1c[nH]c2ccc(Br)cc12)N1CCOCC1`, for which the “hERG current change (%, negative = inhibition) at 1uM” value is reported as 11.5%.

For `O=C(NC(=S)Nn1cnc2c(cnn2-c2ccccc2)c1=O)c1ccc(Oc2ccccc2)cc1`, the “hERG current change (%, negative = inhibition) at 1uM” value is recorded as 13.5%.

As to `CC1CCCN(CC(O)COCc2ccccc2)C1.Cl` (stereo not drawn), the “hERG current change (%, negative = inhibition) at 1uM” value is recorded as 10.6%.

Regarding `CN(Cc1ccccc1)C(=O)c1ccc(NC(=O)Cc2cccc(NC(=O)C3CCN(C(=O)C4CCCC4)CC3)c2)cc1`, the “hERG current change (%, negative = inhibition) at 1uM” value is on record as 5.06%.

On to `C=CC(COCc1ccccc1)N(Cc1ccc(OC)cc1)S(=O)(=O)c1ccccc1Br` (stereo not drawn), for which the “hERG current change (%, negative = inhibition) at 1uM” value is 1.46%.

Consider `O=C(CNC(=O)C1CCCCC1)OCC(=O)c1ccc(F)cc1`, for which the “hERG current change (%, negative = inhibition) at 1uM” value came out at 3.13%.

As to `COc1cc(CNC(C)(C)CO)cc(Br)c1OCc1ccc(Cl)cc1Cl`, the “hERG current change (%, negative = inhibition) at 1uM” value is reported as -1.48%.

For `O=C(CCc1nnc(CCC2CCCCC2)o1)NCc1ccon1`, the “hERG current change (%, negative = inhibition) at 1uM” value was found to be 3.23%.

As for `O=C(Nc1ccccc1-c1nc2ccccc2[nH]1)c1ccc(N2C(=O)CCC2=O)cc1`, the “hERG current change (%, negative = inhibition) at 1uM” value is given as 9%.

`O=C(NCCc1ccccc1)/C(=C\c1ccc([N+](=O)[O-])cc1)NC(=O)c1ccc(Br)cc1`: the “hERG current change (%, negative = inhibition) at 1uM” value is -8.48%.
